# Measurements from PubChem BioAssay AID1461 (National Center for Advancing Translational Sciences (NCATS), 2008).
# Hit rate of the full screen: of about 220,000 compounds, about 2,300 (1%) were called active. This list was built around the results that the source calls inconclusive (neither active nor inactive); the mix of calls is not that of the screen. Calls follow the shape of the dose curve; as a rule, active = well fitted inhibition curve with a large enough effect; inconclusive = small, poorly fitted or top-dose-only effect, or effect the other way; inactive = no such curve, though single readings can be large or run the other way. No potency is given beside an inconclusive call; the fits are too rough.
# Biological target: Neuropeptide S receptor (Homo sapiens) (UniProt Q6W5P4)
# Assay: qHTS Assay for Antagonists of the Neuropeptide S Receptor: cAMP Signal Transduction; also: nearly all actives have a fitted effect of over 50% in size
# Conditions: CHO-NPSR cells, cAMP TR-FRET, antagonist mode; activity change, negative = inhibition: at 38.3 µM (top of the series) unless noted
# % is scaled to controls: 0 for no effect and ±100 for the full control effect; potency is read from the fitted curve at half-maximal effect; tags tell the direction and shape of the fitted curve.
# UniProt Q6W5P4, sequence (Q6W5P4 whole entry, looked up): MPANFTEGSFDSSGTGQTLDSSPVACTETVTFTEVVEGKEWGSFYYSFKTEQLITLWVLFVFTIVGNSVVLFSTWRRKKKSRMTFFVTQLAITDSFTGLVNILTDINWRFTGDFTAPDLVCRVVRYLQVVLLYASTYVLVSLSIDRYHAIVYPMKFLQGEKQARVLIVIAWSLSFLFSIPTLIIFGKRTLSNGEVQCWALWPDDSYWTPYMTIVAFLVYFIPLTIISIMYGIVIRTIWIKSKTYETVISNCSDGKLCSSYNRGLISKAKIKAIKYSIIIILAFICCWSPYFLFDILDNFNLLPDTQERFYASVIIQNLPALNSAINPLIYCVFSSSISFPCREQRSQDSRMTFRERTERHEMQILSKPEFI
SMILES,Potency,"activity change, negative = inhibition"
CCSc1nc(N)c(C#N)c(-c2ccccc2Cl)c1C#N,inactive,–
O=C1OC(c2ccccc2)=NC12CC2c1ccc(Cl)cc1 (stereo not given),"inconclusive [inhibitor, single point]",–
CCCN1CN(Cc2ccccc2)CNC1=S,inactive,–
Cc1c(NS(=O)(=O)c2cccc(C(=O)OCC(=O)N(C)C3CCCCC3)c2)c(=O)n(-c2ccccc2)n1C,inactive,–
N=c1c2c(ncn1CCCO)Oc1cc(O)ccc1C2c1ccccc1 (stereo not given),inactive,–
COc1ccc(Cl)cc1NC(=O)COC(=O)C(CC(C)C)N1C(=O)C2CC=CCC2C1=O (stereo not given),"inconclusive [inhibitor, single point]",–
O=C(c1cc(-c2ccccn2)nc2ccc(Br)cc12)N1CCc2ccccc2C1,"inconclusive [activator, single point]",–
COc1ccc(-c2cc(C3CC3)nc3sc(C#N)c(N)c23)cc1,inactive,–
CC1CC(=O)C2=C(C1)Nc1ccccc1SC2c1ccc(F)cc1 (stereo not given),inactive,–
CCC(c1nnnn1Cc1cccs1)N1CCN(c2nc3ccccc3s2)CC1 (stereo not given),"inconclusive [inhibitor, single point]",–
Cc1ccc(-c2nnc(SCC(=O)N3CCOCC3)nc2-c2ccc(C)cc2)cc1,"inconclusive [inhibitor, partial curve]",–
CC(C)CC(NC(=O)OC(C)(C)C)c1cn([C@@H](CCC(=O)OC(C)(C)C)C(=O)N2CCN(C(=O)OC(C)(C)C)CC2)nn1 (stereo not given in full),"inconclusive [activator, partial curve]",–
CCOC(=O)/C(=N\Nc1ccc(Cl)cc1)c1csc(Nc2ccccc2)n1,"inconclusive [inhibitor, partial curve]",–
Cc1scc(C(=O)N/N=C/c2ccc(OCC(C)C)cc2)c1C,"inconclusive [inhibitor, single point]",–
N#Cc1cc2c(nc1SCc1ccccc1)CCCC2,"inconclusive [inhibitor, single point]",–
CCc1ccc(-c2nn(-c3ccccc3)cc2C2SCC(=O)N2Cc2ccco2)cc1 (stereo not given),"inconclusive [inhibitor, single point]",–
CCN(CC)C(c1ccc(C)cc1)c1nnnn1C1CCCCC1 (stereo not given),"inconclusive [inhibitor, single point]",–
COc1ccc(NC(=O)COC(=O)c2c3c(nc4ccccc24)CCCC3)cc1Cl,"inconclusive [inhibitor, single point]",–
COc1ccc(-c2cc(-c3cccs3)c(C#N)c(SCC(=O)NCc3ccccc3)n2)cc1,"inconclusive [inhibitor, single point]",–
COc1cccc(C(=O)NC2CCN(C(=O)N3c4ccccc4Sc4ccccc43)CC2)c1,"inconclusive [inhibitor, partial curve, poor fit]",–
Cc1csc(Sc2ccc([N+](=O)[O-])cc2C(=O)OCC(=O)NC2CCCC(C)C2C)n1 (stereo not given),"inconclusive [inhibitor, full curve, poor fit]",–
CSc1nc(Sc2ccccc2Cl)c2ccccc2n1,"inconclusive [activator, single point]",–

SMILES,Potency,"activity change, negative = inhibition"
C1=C(CCNc2ncnc3nc[nH]c23)CCCC1,inactive,–
CCCC(c1nnnn1CC1CCCO1)N1CCN(c2cc(Cl)ccc2C)CC1 (stereo not given),"inconclusive [inhibitor, partial curve]",–
O=C(CSC1CC(=O)N(CC(c2ccccc2)c2ccccc2)C1=O)Nc1ccc(Cl)cc1 (stereo not given),"inconclusive [inhibitor, single point]",–
CCOC(=O)c1ccccc1NC(=O)CSc1nnnn1C1CCCCC1,"inconclusive [inhibitor, partial curve]",–
CCCCn1nc(C(=O)Nc2nc3c(s2)CCCC3)c2ccccc2c1=O,"inconclusive [inhibitor, single point]",–
FC(F)(F)c1cccc(Sc2nc(-c3ccccc3)nnc2C(F)(F)F)c1,"inconclusive [inhibitor, single point]",–
CN(C)c1nc(Oc2ccc(=O)n(-c3ccccc3)n2)nc(N2CCOCC2)n1,–,inactive: -18.6% [at 7.67 µM]
O=C(c1ccco1)N1CCN(C(=O)C2Cc3ccccc3CN2S(=O)(=O)c2ccc(F)cc2)CC1 (stereo not given),"inconclusive [inhibitor, single point]",–
CC(C)C(=O)Nc1ccc(C(=O)c2ccccc2)cc1,"inconclusive [inhibitor, partial curve, poor fit]",–
Cn1c(SCC(=O)n2c3c(c4ccccc42)CCCC3)nnc1-c1ccccc1,"inconclusive [inhibitor, single point]",–
O=C(Cn1c(O)c(/C=C2\C=Nc3ccccc32)sc1=O)Nc1ccc2c(c1)OCO2,inactive,–
COc1ccc(-c2nn(-c3ccccc3)cc2C(=O)n2nnc3ccccc32)cc1,active: 10 µM,–
OC(COCc1ccc(Cl)cc1)CN1CCN(CC(O)COCc2ccc(Cl)cc2)CC1 (stereo not given),"inconclusive [inhibitor, single point]",–
Cc1c(C(=O)NCCSCc2ccc(F)cc2)cnn1-c1ccc(Cl)cc1,"inconclusive [activator, single point]",–
CN1CCN(C(=O)c2ccc3c(=O)n(Cc4ccc(Cl)cc4)c(=S)[nH]c3c2)CC1,"inconclusive [inhibitor, single point]",–
O=C1c2ccccc2C(Nc2ccc3c(c2)OCO3)N1Cc1ccc2c(c1)OCO2 (stereo not given),inactive,–
O=C(Nc1ccc(Cl)cn1)c1ccc(-c2cc(Cl)ccc2Cl)o1,"inconclusive [inhibitor, single point]",–
CCN(CC)C(=O)CN1C(=O)/C(=C/c2ccccc2)SC1=S,"inconclusive [inhibitor, single point]",–
CC(C)C(c1nnnn1C1CCCCC1)N1CCCc2ccccc21 (stereo not given),"inconclusive [inhibitor, single point]",–
Cc1cc(C)nc(SCc2nnc(SCC(=O)Nc3ccc(C)c(C)c3)n2Cc2ccco2)n1,"inconclusive [inhibitor, single point]",–
CN(C)c1ccc(C2C=C(c3ccc(Cl)cc3OC(F)F)Nc3ncnn32)cc1 (stereo not given),inactive,–
CCCN(CCC)C(=O)C1c2ccccc2Oc2ccccc21,"inconclusive [inhibitor, single point]",–

SMILES,Potency,"activity change, negative = inhibition"
COc1cccc(NC(=O)Nc2nnc(-c3ccccc3SCc3ccccc3)s2)c1,"inconclusive [inhibitor, single point]",–
COc1cc2c(cc1OC)C(c1ccccc1)=NCC2,inactive,–
O=C(Nc1cccc2ccccc12)c1nn(C23CC4CC(CC(C4)C2)C3)cc1[N+](=O)[O-],"inconclusive [inhibitor, partial curve]",–
CCC(=O)Nc1ccc(C(=O)NNC(=O)Cc2ccccc2)cc1,inactive,–
O=C(Nc1ccc(N2CCN(C(=O)c3ccco3)CC2)cc1)C(c1ccccc1)c1ccccc1,"inconclusive [inhibitor, single point]",–
CC(=O)c1sc(NC(=O)c2cccc3ccccc23)nc1C,"inconclusive [activator, single point]",–
Cc1nn2c(NCc3cccnc3)c3c(nc2c1-c1ccccc1)CCC3,"inconclusive [activator, partial curve]",–
CCOC(=O)c1c(C)[nH]c(C(=O)C(C)OC(=O)c2cccc(OCc3c(C)noc3C)c2)c1C (stereo not given),"inconclusive [inhibitor, partial curve]",–
Cc1ccc(CN(C(=O)c2ccco2)C(C(=O)NC2CCCC2)c2cccnc2)cc1 (stereo not given),inactive,–
CC1=C(C(=O)OC2CCCCC2)C(c2ccc(C)o2)C2=C(CC(C)(C)CC2=O)N1 (stereo not given),"inconclusive [inhibitor, single point]",–
Oc1ccc(-c2nc3ccccn3c2NCc2ccc3c(c2)OCO3)cc1,"inconclusive [inhibitor, partial curve]",–
CCC(C)(c1ccc(C(=O)OC)s1)c1ccc(C(=O)OC)s1,"inconclusive [inhibitor, partial curve, poor fit]",–
COc1ccc(Cc2nnc(SCC(=O)c3ccc(OC)cc3)o2)cc1,inactive,–
Cc1oc(C)c2c(=O)ccc3c(c12)OC(N)=C(C#N)C3c1ccccc1Cl (stereo not given),active: 10 µM,–
Cc1cc(C(C)(C)C)oc1C(=O)N(CC(=O)NC1CCCC1)Cc1ccc(Cl)cc1,"inconclusive [inhibitor, partial curve]",–
CCC12CN3CC(CC)(CN(C1)C3c1c(O)ccc3ccccc13)C2=O (stereo not given),"inconclusive [inhibitor, partial curve, poor fit]",–
Cc1cc(N2C(=O)C=CC2=O)c([N+](=O)[O-])cc1C,"inconclusive [inhibitor, single point]",–
CCOc1cc(N2CCOCC2)c(OCC)cc1NC(=O)CC12CC3CC(CC(C3)C1)C2,active: 10 µM,–
CCn1[nH]c(=O)c(=Nc2c(C)n(C)n(-c3ccccc3)c2=O)cc1-c1ccc(Cl)cc1,"inconclusive [inhibitor, single point]",–
CCC(C)NC(=O)CSc1nc2ccc(N3CCOCC3)cc2c(=O)n1CCc1ccccc1 (stereo not given),"inconclusive [inhibitor, single point]",–
CCC(C)n1cnc2c(c1=O)c1nc3ccccc3nc1n2Cc1ccc(OC)cc1 (stereo not given),"inconclusive [inhibitor, single point]",–
